# The supplement of paper PMC3334620
# Whole data set: some 33,000 sequences, median “E-score (-0.5 to 0.5)” near -0.054, cut for the highest 2% near 0.35. Some of the results follow.
# Target: T1, Stb5 (UniProt P38699)
# T1 sequence: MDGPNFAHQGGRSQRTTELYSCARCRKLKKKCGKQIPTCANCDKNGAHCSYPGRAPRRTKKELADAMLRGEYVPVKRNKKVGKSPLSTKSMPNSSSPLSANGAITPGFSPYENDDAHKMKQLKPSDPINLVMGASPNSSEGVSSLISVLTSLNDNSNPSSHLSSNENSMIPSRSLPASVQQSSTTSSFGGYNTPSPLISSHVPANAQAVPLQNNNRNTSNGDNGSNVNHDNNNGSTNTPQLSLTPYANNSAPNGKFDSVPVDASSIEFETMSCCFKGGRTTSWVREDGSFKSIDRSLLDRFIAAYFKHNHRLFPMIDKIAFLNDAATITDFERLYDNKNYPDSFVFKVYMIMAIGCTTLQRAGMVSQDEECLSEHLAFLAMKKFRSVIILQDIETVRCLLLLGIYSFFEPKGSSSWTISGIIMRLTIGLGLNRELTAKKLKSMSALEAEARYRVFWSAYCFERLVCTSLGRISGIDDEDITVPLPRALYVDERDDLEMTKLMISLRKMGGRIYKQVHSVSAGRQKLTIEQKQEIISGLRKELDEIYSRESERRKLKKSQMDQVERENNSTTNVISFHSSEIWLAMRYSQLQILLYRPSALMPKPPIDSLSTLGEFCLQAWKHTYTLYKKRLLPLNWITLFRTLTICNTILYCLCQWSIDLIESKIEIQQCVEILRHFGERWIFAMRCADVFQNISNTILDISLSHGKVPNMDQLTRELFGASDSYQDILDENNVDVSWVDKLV
# Assay: PBM E-score (8-mer binding enrichment) (E-score (-0.5 to 0.5)); higher = stronger / more preferred TF binding; most listed sequences are background and not binding sites
# Settings: protein concentration: 200 nM; construct: GST-full length
# Summary of the method: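 Yeast transcription factors, full-length or as DNA-binding domains, were expressed with a GST tag using PURExpress in vitro transcription/translation. At about 100-200 nM they were applied to universal all-10-mer Agilent arrays, double-stranded by primer extension on fresh or once-stripped slides. Fluorescent anti-GST detected bound protein, and masliner normalised the scans. E-scores for ungapped eight-base words, pooled with reverse complements, came from the Universal PBM Analysis Suite.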
row,Sequence,PBM E-score
1,CGCGCCCC,0.107
2,ATGACCTA,-0.0724
3,ACTAATCT,0.0682
4,ACACGATC,-0.082
5,CATCCGCC,0.271
6,AGGCTGGA,-0.199
7,CTTTATAC,0.209
8,CAGACTCC,0.0827
9,CGCCAGAC,-0.0322
10,ACAAGTAA,-0.193
11,GAATACCC,0.115
12,GCAATACC,0.175
13,AGGACAAC,-0.138
14,GCGACCTA,-0.189
15,GCTGGTGA,-0.201
16,CCTAAGCG,0.0828
17,GAAATTTA,-0.097
18,ATAAAAGG,0.0585
19,GGAAAGAC,-0.0533
20,TCTATTAA,-0.042
21,AGTCCAAG,-0.252
22,ACGATATA,-0.0812

row,Sequence,PBM E-score
1,CACAGAAG,-0.0722
2,CCTCCAAC,-0.199
3,TCATCCGA,0.157
4,TAGCAGCA,-0.233
5,CCGACGCG,0.378
6,ATATAAGC,-0.0284
7,TAATGGGA,-0.263
8,ACATGCTC,-0.203
9,CCGTGCCA,0.1
10,GGCAAAAC,0.189
11,CACGAAAC,-0.0143
12,CAATTGTC,-0.0888
13,ACACTACG,-0.0636
14,GCATTGTA,-0.0321
15,GACTTATA,0.289
16,ATCTCGGA,0.184
17,AGTGTCGA,-0.0288
18,GGCGACGA,-0.308
19,TTCATAAA,-0.0475
20,ACAGGAAC,-0.149
21,CGGGCTTC,0.293
22,AAATGCGA,-0.0217

row,Sequence,PBM E-score
1,ACGTGGCA,-0.105
2,ACCCACGG,0.103
3,AGGTTGTA,-0.076
4,CCGCCTCG,0.214
5,GCTGTGAC,-0.137
6,ACGACTAC,-0.236
7,ATCCTCCA,-0.256
8,CTATAGGA,0.0341
9,TCTGTTCA,-0.178
10,CAACAGTG,-0.0346
11,ACACCCCA,-0.176
12,CTACTACA,0.035
13,GAATTATA,0.198
14,ACTATGAG,-0.18
15,CGATTGAG,-0.00869
16,GGAAGAAC,0.0177
17,AATGTCGA,-0.17
18,AGGAGTCA,-0.194
19,CGACGACA,-0.07
20,ACCACGGC,0.0232
21,CGTTCGAG,-0.0409
22,AGTTCAGC,-0.299

row,Sequence,PBM E-score
1,ATGAAGTA,-0.0605
2,TAAAAATA,0.124
3,CCTCACAA,-0.117
4,AATCTCGT,-0.0289
5,GAATATAC,0.106
6,CGATTGGA,0.0362
7,GTCGTCAA,-0.136
8,CAAGGACA,-0.26
9,AACAACAG,-0.158
10,AATCGACG,-0.145
11,ATATCTTG,-0.117
12,GGGCACTA,0.0684
13,ACTATAAA,0.0934
14,CATAGTCG,-0.0255
15,CTGGTAGC,-0.218
16,ACCGGACG,0.329
17,AAGAATGC,-0.218
18,CGTATTGA,-0.013
19,ACCCTCCG,0.134
20,GTGGTAAC,-0.139
